Whole data set: some 33,000 sequences, median “E-score (-0.5 to 0.5)” near -0.021, cut for the highest 2% near 0.32. The list shows a part of the results.

The target of the experiment is T1, Zap1 (UniProt P47043).
T1 sequence: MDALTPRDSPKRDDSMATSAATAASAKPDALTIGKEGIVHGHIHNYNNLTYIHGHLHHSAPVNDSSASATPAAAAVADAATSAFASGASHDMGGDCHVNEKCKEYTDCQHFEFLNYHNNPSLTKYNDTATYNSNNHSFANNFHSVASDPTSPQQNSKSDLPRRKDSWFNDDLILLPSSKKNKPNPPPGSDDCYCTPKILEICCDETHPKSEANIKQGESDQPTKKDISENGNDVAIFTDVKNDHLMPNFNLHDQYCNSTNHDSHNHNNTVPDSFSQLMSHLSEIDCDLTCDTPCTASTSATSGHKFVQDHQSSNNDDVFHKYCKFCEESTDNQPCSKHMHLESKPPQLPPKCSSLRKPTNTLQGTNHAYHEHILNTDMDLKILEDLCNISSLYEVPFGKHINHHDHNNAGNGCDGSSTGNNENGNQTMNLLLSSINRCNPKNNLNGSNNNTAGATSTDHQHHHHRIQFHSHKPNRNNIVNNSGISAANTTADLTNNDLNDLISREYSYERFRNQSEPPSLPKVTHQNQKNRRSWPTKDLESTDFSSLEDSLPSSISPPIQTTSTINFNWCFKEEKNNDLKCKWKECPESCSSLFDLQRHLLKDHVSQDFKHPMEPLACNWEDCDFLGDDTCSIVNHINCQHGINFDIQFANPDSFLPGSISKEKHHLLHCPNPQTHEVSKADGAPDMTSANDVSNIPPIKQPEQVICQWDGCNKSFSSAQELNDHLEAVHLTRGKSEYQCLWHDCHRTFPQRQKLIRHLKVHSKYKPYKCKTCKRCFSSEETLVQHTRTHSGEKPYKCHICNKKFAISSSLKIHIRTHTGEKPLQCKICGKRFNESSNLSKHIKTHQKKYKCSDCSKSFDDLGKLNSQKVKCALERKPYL
Kind of experiment: PBM E-score (8-mer binding enrichment) (E-score (-0.5 to 0.5)); higher = stronger / more preferred TF binding; most listed sequences are background and not binding sites. Conditions: protein concentration: 200 nM; construct: GST-full length. The method, then: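 Universal 'all 10-mer' protein binding microarrays (Agilent AMADID 015681) probed with GST-tagged S. cerevisiae TFs (full-length or DBD) made by in vitro transcription/translation (PURExpress), about 100-200 nM. Bound TF was detected with fluorescent anti-GST. Each ungapped 8-mer (which stands for itself and its reverse complement) is scored by the PBM enrichment score (E-score), a modified Wilcoxon-Mann-Whitney statistic from -0.5 to +0.5, computed with the Universal PBM Analysis Suite. Scale: above 0.35 generally sequence-specific binding.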
For ATAACCGG, the “PBM E-score” value came out at 0.387.
As to ATGAGTTC, the “PBM E-score” value is -0.115.
In the case of GTATTATA, the “PBM E-score” value is 0.305.
As for ACGGGCAG, the “PBM E-score” value was -0.0793.
In the case of CCACAGTA, the “PBM E-score” value was 0.0669.
For the sequence ATTTGTTA, the “PBM E-score” value was determined as 0.151.
For the sequence GAGATTAA, the “PBM E-score” value is 0.00852.
For AGAGGCTC, the “PBM E-score” value was -0.247.
As for CATTAATG, the “PBM E-score” value turned out to be 0.0676.
GGGACTAC: the “PBM E-score” value is -0.0133.
As for CTTTTCAC, the figure is 0.00083; as for CTGATTAA, 0.166; as for CTTGGTAC, 0.181.
Consider AATATGCC, for which the “PBM E-score” value is -0.285.
On to CGAGCGGA, for which the “PBM E-score” value was -0.173.
As for CAGTAATA, the figure is 0.112; as for CAATGCAC, -0.139.
As for GGAGAGCA, the figure is -0.206.
For CATAGATG, the “PBM E-score” value is -0.173.
As for GAGGGCGC, the “PBM E-score” value was -0.277.
Then GACGCAGA, with -0.0982; and GAGTTAAA, with 0.0833.
As for GGAAGGAC, the “PBM E-score” value is -0.27.
Turning to AAGTACAG, the “PBM E-score” value was -0.182.
As for CCTGGGTC, the figure is 0.148.
In the case of AGTTGATG, the “PBM E-score” value is 0.0076.
As for ATCTGAAG, the figure is -0.213; as for AATCGTTC, -0.085; as for AAATTGCT, -0.0693.
Then CGCAGCAA, with -0.12; and ACCCACAC, with 0.225; and ATCCCAAG, with 0.132.
For GGGCGCTA, the “PBM E-score” value was -0.32.
Then ATCTTATC, with -0.0113; and CGTCCAAG, with -0.289; and TGTCTAAA, with 0.0857.
Consider GTAGTCCA, for which the “PBM E-score” value was -0.0358.
With CTCCTCAC, the “PBM E-score” value was -0.367.
For the sequence TACCGTAA, the “PBM E-score” value worked out at 0.27.
For GCGCGGCA, the “PBM E-score” value is -0.155.
For the sequence GCTATCGA, the “PBM E-score” value is -0.0297.
As for AGGGCACG, the figure is -0.292; as for AAAGGGTC, 0.363; as for AGTCCAAT, 0.00298.
On to TCAACACA, for which the “PBM E-score” value came to 0.172.
As for CTCAATAA, the figure is 0.0562; as for CCTCGTGC, 0.024.
For CCTCGGAA, the “PBM E-score” value is 0.215.
For ACTCATAG, the “PBM E-score” value was -0.142.
Then GCTTAGCA, with -0.148; and CAAGCGAC, with -0.257.
Regarding CTAGCCCC, the “PBM E-score” value is -0.0599.
Regarding ATCAGAGC, the “PBM E-score” value was -0.0443.
As to AACGATAG, the “PBM E-score” value was 0.0456.
As for ATACGTTA, the “PBM E-score” value was 0.0516.
Regarding GCACTAGA, the “PBM E-score” value is -0.197.
As to ACCCTCTA, the “PBM E-score” value came to 0.355.
AAAATTAT: the “PBM E-score” value is 0.236.
For the sequence CATCTTTA, the “PBM E-score” value was -0.0193.
As to ACATGGAT, the “PBM E-score” value was -0.0604.
Then AACTGCGT, with -0.163; and ATAGTCCC, with -0.273.
As for AACGACAC, the “PBM E-score” value stood at 0.0852.
ATCCGGAA: the “PBM E-score” value came out at 0.0059.
For GATGAACA, the “PBM E-score” value came out at 0.0452.
Turning to CTTGTTTC, the “PBM E-score” value amounted to 0.15.
As to ATCTTCAT, the “PBM E-score” value was -0.144.
In the case of CCTCTCAC, the “PBM E-score” value was -0.0256.
As for GACTATGA, the “PBM E-score” value was -0.0524.
On to CGGCATAA, for which the “PBM E-score” value came to 0.0916.
For the sequence CCCAAGTC, the “PBM E-score” value was -0.191.
For the sequence CACAGAAA, the “PBM E-score” value turned out to be 0.184.
With CTGCCTCC, the “PBM E-score” value is -0.237.
For CTCAGGGC, the “PBM E-score” value is -0.0163.
With GAAACGCA, the “PBM E-score” value was -0.104.
Then TTAACCAA, with 0.317; and GTAGGAAC, with 0.0295; and GAATACCA, with 0.0327.
Consider AAAGGGGC, for which the “PBM E-score” value was -0.00977.
TCCCTACA: the “PBM E-score” value was -0.0805.
Consider AAGCCGGG, for which the “PBM E-score” value is -0.177.
Then CGTTGTGA, with -0.151; and CTTCCGCA, with -0.0327.
As for CGAGTGGC, the “PBM E-score” value is -0.272.
Regarding CTGGAAAG, the “PBM E-score” value is -0.0479.
Then ACATATCA, with 0.166; and CTATGGAA, with 0.0396; and ACCTTGGC, with 0.106.
Then CAAACATG, with 0.0913.
Take CTTGGTTC: the “PBM E-score” value worked out at 0.232.
As for AGTTCGTA, the figure is -0.0771.
Take TGCGTCCA: the “PBM E-score” value was -0.167.
On to CACAATAC, for which the “PBM E-score” value came to 0.159.
On to ACGTCGTC, for which the “PBM E-score” value was -0.0901.

These data come from the supplement of paper PMC3334620.
